PubChem BioAssay AID1671194 (National Center for Advancing Translational Sciences (NCATS), 2021)
Out of some 140,000 compounds screened, about 240 (0.17%) were called active. Inconclusive means that the source gave no clear call. Such entries were picked first, then a sample of the others. Calls come from the whole dose curve; as a rule, active = well fitted inhibition curve with a large enough effect; inconclusive = small, poorly fitted or top-dose-only effect; inactive = no such curve, though single readings can be large or run the other way. Potencies of inconclusive entries are doubtful fits and often do not repeat.

assay: Primary qHTS assay for inhibitors of alpha-synuclein gene (SNCA) expression; conditions: HEK-293 SNCA-luciferase knock-in, luminescence, 24 h; series mostly up to 57.2 µM; note: nearly all actives have a fitted effect of over 45% in size
Potency is the fitted concentration of half-maximal effect; tags give direction and shape of the fitted curve.

Row | Structure (SMILES) | Potency
1 | CCCCN1CCN(C(=O)c2cc(Cl)c(C)c(Cl)c2)CC1=O | inconclusive: 7.94 µM [inhibitor, full curve, poor fit]
2 | O=C(NCCn1cc(SCc2ccc(Br)cc2)c2ccccc21)c1cccs1 | inconclusive: 39.8 µM [inhibitor, single point]
3 | COc1ccc(-c2cc(N3CCCN(C(=O)Cc4c(F)cccc4Cl)CC3)n[nH]2)cc1 | inconclusive: 39.8 µM [inhibitor, single point]
4 | C[S+](=O)([O-])N1CCC(c2nnc3n2C(C(=O)NCCc2ccccc2F)CC3)CC1 (stereo not drawn) | inconclusive: 1.41 µM [inhibitor, full curve, poor fit]
5 | Cc1cc(C)cc(NC(=O)C2CCCN2S(=O)(=O)c2ccc3nc(-c4ccccc4)[nH]c3c2)c1 (stereo not drawn) | inconclusive: 35.5 µM [inhibitor, single point]
6 | COCCNC(=O)[C@H]1C[C@H](Oc2cccnc2)CN1C(=O)Nc1ccc(OC)cc1 | inconclusive: 3.16 µM [inhibitor, single point]
7 | COc1ccccc1C(=O)N1CCC(C(=O)N2CCC(N3Cc4ccccc4C3=O)CC2)CC1 | inconclusive: 3.55 µM [inhibitor, single point]
8 | Cc1ccc(S(=O)(=O)N2CCCCCC2c2nnc(C)o2)c(C)c1 (stereo not drawn) | inconclusive: 22.4 µM [inhibitor, single point]
9 | O=C(Nc1ccc(Cl)cc1)N1CCCC(C(=O)N2CCC(N3Cc4cccn4C3=O)CC2)C1 (stereo not drawn) | inactive
10 | COc1ccc(C(=O)N2CCC[C@H]2c2nc(-c3ccc(OC)c(OC)c3)no2)c(C)c1 | inactive
11 | COC(=O)c1ccccc1NC(=O)c1nc(S(=O)(=O)Cc2ccccc2F)ncc1Cl | inconclusive: 22.4 µM [inhibitor, single point]
12 | O=C(Nc1cc(-c2ccccn2)nn1-c1ccccc1)C1CC1 | inactive
13 | Cc1ccn2c(Nc3ccc4c(c3)OCO4)c(-c3ccc(O)cc3)nc2c1 | inconclusive: 10 µM [inhibitor, partial curve, poor fit]
14 | COc1ccc(-c2ccnc3nc(-c4cccs4)nn23)c(F)c1 | inactive
15 | O=C(CCC[C@H]1NC[C@@H]2CC1CN(Cc1ccccc1)C2)N1CCCC1 | inactive
16 | CCCCOc1ccc(S(=O)(=O)n2nc(C)c(S(=O)(=O)N3CCC(C)CC3)c2C)cc1 | inactive
17 | COCC1CN(Cc2sccc2C)CC12CCNCC2 (stereo not drawn) | inconclusive: 8.91 µM [inhibitor, single point]
18 | CCOCc1nc(C2CCCN(C(=O)c3ccnn3C)C2)no1 (stereo not drawn) | inconclusive: 0.631 µM [inhibitor, partial curve, poor fit]
